Source: PubChem BioAssay (NCATS)
The inconclusive results got no clear call from the source; some entries with a clear call stand among them for comparison. For some of these results: Where the call is inconclusive, the potency comes from a doubtful curve fit. Calls of active or inactive are those of the source. Unless noted, the call rests on the fitted dose curve; in most records, active means well fitted curve in the direction sought with a large enough effect; inconclusive means small, poorly fitted or top-dose-only effect, or another doubt; inactive means no such curve, though single readings can be large; an effect the other way counts as inactive or inconclusive.

Columns and labels:
[1] = target: Ferritin light chain (Equus caballus) (UniProt P02791); assay: qHTS Validation Assay for Identification of Novel General Anesthetics (AID 2323); further: on the % scale 0 is the no-effect control and ±100 the full control effect
Chain of UniProt P02791 (P02791 2-175 limits assumed): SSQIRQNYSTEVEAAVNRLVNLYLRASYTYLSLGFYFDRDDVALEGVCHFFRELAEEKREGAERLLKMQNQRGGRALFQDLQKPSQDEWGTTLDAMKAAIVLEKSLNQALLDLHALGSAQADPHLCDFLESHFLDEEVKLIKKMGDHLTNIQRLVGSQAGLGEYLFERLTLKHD
Method in brief: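 Fluorescence at 535 nm (excitation 380 nm) reported loss of 1-AMA binding to horse-spleen apoferritin (10 uM) in PBS with 50% saturated 1-aminoanthracene, after 10 min room-temperature incubation with compound; values from Hill fits of normalized response.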

[2] = target: RecQ-like DNA helicase BLM (Homo sapiens) (UniProt P54132); assay: qHTS Validation Assay for Inhibitors of Bloom's syndrome helicase (BLM) (AID 2364);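 further: plate controls were DMSO vehicle for no effect and enzyme-free control for full effect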
Method in brief: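 50 nM BLM preincubated 15 min at room temperature with compound in pH 8.0 Tris buffer containing 2.5 ug/ml poly(dI-dC); started with 200 nM TAMRA/BHQ-2 forked duplex and 2 mM ATP (final). Unwinding read as TAMRA fluorescence increase, two reads 2 h apart.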

[3] = qHTS Validation Assay to Find Inhibitors of Chronic Active B-Cell Receptor Signaling (AID 485345; active means well fitted curve in the direction sought with a large enough effect in the main read-out, with a control signal flat, not every such curve was filed as active; inconclusive means small, poorly fitted or top-dose-only effect, or effect the other way, or a change in a side signal; inactive means no such curve, though single readings can be large or run the other way;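 further: 0% = untreated basal cells and 100% = 10 µM MG-132 proteasome inhibitor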); conditions: ABC-DLBCL cells, chronic BCR signaling reporter, CBG luciferase; at 46.1 µM (top of the series)
Method in brief: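 TMD8 ABC-DLBCL cells stably carrying doxycycline-inducible IkappaBalpha–green luciferase fusion plus unfused red luciferase; compounds 46 uM to 3 nM, 4 h at 37C with doxycycline. Corrected green/red luminescence ratio normalized to 10 uM MG-132 and basal cell wells; curves fitted.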

[4] = target: ATP-dependent 6-phosphofructokinase (Trypanosoma brucei brucei) (UniProt O15648); assay: qHTS Validation Assay to Find Inhibitors of T. brucei phosphofructokinase (AID 485368); further: potency means the concentration at half of the fitted maximal effect
Chain of UniProt O15648 (O15648 whole entry, looked up): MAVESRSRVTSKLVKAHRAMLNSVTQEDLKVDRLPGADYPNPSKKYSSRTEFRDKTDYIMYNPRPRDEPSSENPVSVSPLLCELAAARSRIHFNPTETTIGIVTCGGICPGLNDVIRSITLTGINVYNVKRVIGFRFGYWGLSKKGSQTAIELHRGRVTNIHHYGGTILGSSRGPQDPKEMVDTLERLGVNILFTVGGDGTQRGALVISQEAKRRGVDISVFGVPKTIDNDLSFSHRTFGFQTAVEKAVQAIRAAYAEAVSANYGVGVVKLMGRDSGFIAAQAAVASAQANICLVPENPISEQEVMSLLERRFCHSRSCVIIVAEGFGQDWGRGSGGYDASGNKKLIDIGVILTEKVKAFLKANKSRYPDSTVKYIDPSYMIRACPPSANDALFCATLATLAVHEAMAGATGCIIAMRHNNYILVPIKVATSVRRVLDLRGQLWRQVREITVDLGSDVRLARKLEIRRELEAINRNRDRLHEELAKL
Method in brief: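 Enzyme reaction in triethanolamine buffer pH 8.0 with 5 mM MgCl2, 0.01% Tween20 and 0.1% BSA; PFK 1.25 nM, F6P 0.5 mM, ATP 0.1 mM, 45 min RT. ADP quantified by ADP-Glo.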

[5] = Quantitative high throughput screen for delayed death inhibitors of the malarial parasite plastid, 96 hour incubation (AID 488745); further: on the % scale 0 is the no-effect control and ±100 the full control effect; nearly all actives have a fitted effect of over 70% in size
Method in brief: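 P. falciparum carrying an integrated firefly luciferase reporter, grown in erythrocytes (2% hematocrit, 0.1% parasitemia final) in RPMI 1640/0.5% Albumax, was exposed to compound for 96 h (two generations) at 37 C, 5% CO2. Luminescence decrease indicated growth inhibition.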

[6] = target: Lysine-specific demethylase 5B (Homo sapiens) (UniProt Q9UGL1); assay: Optimization screen for KDM5B Histone Demethylases FDH coupled qHTS against the LOPAC library (AID 1347166); conditions: KDM5B demethylation, FDH-coupled NADH fluorescence (FDH is formaldehyde dehydrogenase); activity, negative = inhibition: at 57.5 µM (top of the series) unless noted; further: potency means the concentration at half of the fitted maximal effect; on activity, negative = inhibition: 0% is about no effect
Chain of UniProt Q9UGL1 (Q9UGL1 whole entry, looked up): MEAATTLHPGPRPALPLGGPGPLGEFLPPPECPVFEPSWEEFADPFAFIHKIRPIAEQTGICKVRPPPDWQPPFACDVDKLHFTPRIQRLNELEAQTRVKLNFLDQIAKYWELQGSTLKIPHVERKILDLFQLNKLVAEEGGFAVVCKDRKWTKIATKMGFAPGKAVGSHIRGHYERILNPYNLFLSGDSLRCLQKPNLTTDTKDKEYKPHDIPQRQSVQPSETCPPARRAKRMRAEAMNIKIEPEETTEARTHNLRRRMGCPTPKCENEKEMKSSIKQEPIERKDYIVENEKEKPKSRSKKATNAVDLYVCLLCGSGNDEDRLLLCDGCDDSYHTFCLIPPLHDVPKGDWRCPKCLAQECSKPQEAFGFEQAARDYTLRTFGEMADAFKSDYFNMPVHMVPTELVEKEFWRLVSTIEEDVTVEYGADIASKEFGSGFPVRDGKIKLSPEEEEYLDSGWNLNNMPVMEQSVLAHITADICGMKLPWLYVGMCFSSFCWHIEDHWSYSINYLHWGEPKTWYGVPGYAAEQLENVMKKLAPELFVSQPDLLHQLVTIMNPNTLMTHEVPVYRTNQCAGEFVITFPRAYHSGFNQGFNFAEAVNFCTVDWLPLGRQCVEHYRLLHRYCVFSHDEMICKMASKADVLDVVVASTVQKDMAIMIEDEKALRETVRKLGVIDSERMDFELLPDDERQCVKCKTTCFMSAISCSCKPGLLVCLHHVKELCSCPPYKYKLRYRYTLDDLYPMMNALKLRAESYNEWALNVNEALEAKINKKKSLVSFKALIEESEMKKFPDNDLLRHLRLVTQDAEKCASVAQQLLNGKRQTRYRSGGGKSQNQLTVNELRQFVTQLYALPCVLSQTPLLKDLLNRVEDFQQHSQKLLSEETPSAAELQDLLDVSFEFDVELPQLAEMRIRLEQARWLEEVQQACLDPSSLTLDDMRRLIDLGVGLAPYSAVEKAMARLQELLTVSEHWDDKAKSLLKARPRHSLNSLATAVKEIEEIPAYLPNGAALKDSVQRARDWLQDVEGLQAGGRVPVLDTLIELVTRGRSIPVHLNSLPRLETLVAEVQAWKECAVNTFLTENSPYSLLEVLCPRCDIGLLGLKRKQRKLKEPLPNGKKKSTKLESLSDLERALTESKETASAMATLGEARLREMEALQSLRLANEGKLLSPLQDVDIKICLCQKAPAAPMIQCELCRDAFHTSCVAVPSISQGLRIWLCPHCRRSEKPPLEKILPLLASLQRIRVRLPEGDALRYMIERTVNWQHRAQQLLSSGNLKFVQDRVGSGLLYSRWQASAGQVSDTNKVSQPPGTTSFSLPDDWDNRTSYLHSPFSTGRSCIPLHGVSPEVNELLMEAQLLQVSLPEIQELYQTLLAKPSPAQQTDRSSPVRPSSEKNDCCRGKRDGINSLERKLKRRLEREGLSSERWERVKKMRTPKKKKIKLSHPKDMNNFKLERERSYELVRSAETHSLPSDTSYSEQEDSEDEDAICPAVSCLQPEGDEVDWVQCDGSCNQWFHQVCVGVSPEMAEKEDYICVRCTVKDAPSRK
Method in brief: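 KDM5BDeltaAP (200nM final) preincubated 10 min with compound, then 12.5uM H3K4Me3, 25uM a-ketoglutarate, ascorbate, Fe(II), NAD+ and FDH added; 50mM HEPES pH 7.5, 0.01% Tween-20. NADH fluorescence (340/450 nm) change over 30 min, room temperature.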

[7] = Primary qHTS for inhibitors of La Crosse Virus (LACV) - induced cell death in SH-SY5Y cells (AID 1508616); further: potency means the concentration at half of the fitted maximal effect
Method in brief: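 Luminescent ATP readout (ATPLite 1step, 5 min room temperature) measured rescue from LACV-induced death after 6 days of infection at 0.01 MOI; normalized to infected DMSO wells and uninfected DMSO wells.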

[8] = target: Metallo-beta-lactamase type 2 (Klebsiella pneumoniae) (UniProt C7C422); assay: qHTS to identify inhibitors of the New Delhi Metallo-beta-lactamase (NDM): assay validation screen against the NCATS LOPAC Collection (AID 1794843); further: potency means the concentration at half of the fitted maximal effect
Chain of UniProt C7C422 (C7C422 whole entry, looked up): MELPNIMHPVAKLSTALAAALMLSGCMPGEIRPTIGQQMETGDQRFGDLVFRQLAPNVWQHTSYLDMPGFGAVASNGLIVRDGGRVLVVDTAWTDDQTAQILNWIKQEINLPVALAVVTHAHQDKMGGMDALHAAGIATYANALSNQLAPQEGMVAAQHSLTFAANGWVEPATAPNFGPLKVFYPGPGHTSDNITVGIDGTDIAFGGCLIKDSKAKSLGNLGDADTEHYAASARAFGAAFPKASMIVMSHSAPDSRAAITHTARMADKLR
Method in brief: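 Enzyme 2 nM final, 50 mM HEPES pH 7.0, 1 uM ZnSO4, 0.01% Tween20; cpds in DMSO, preincub w/ enzyme; + nitrocefin (50 uM stock); A485 at plateau; no-enzyme column as blank.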

[9] = Stat Signaling Pathway (AID 446; active means well fitted curve in either direction with a large enough effect, not every such curve was filed as active; inconclusive means small, poorly fitted or top-dose-only effect, or another doubt;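 further: ME-180 cervical cancer cells given 40 pM IL-6 alongside compound; SIE-controlled beta-lactamase reporter measured as 460/530 nm FRET emission ratio; top concentration of the series differs between compounds; on the % scale 0 is the no-effect control and ±100 the full control effect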); conditions: ME-180 SIE beta-lactamase reporter, IL-6 stimulated, 5 h; at 7.69 µM (top of the series) unless noted
Method in brief: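 Screening format detects activators and inhibitors alike: ME-180 SIE-bla cells stimulated at 40 pM IL-6 for 5 hrs with compound, then dual-emission beta-lactamase read at 405 nm excitation.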

[10] = target: Mitogen-activated protein kinase 10 (Mus musculus) (UniProt Q61831); assay: JNK3 AlphaScreen Assay (AID 530; active means well fitted curve in either direction with a large enough effect, not every such curve was filed as active; inconclusive means small, poorly fitted or top-dose-only effect, or another doubt;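 further: kinase came from lysate of stimulated human HepG2 cells; signal reports phosphorylation of biotinylated GST-cJun 1-79 at Ser73 with 10 µM ATP; potency means the concentration at half of the fitted maximal effect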); conditions: JNK3 lysate, c-Jun phosphorylation; activity change, negative = inhibition: at 57.1 µM (top of the series)
Method in brief: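 qHTS format: compounds tested as titrations against IL-1beta/TNF-alpha-activated HepG2 lysate JNK3 with biotin-GST-cJun substrate and 10 uM ATP at room temperature. Loss of anti-phospho-cJun AlphaScreen signal indicates inhibition.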

[11] = target: 3',5'-cyclic-AMP phosphodiesterase 4B (Homo sapiens) (UniProt Q07343); assay: qHTS Assay for Inhibitors of PDE-IV (AID 607; active means well fitted activation curve with a large enough effect in the main read-out, with a control signal flat, not every such curve was filed as active; inconclusive means small, poorly fitted or top-dose-only effect, or effect the other way, or a change in a side signal; further: potency means the concentration at half of the fitted maximal effect); conditions: HEK293 ACTOne CNG channel cells, membrane potential fluorescence; activation (PDE inhibition): at 22.9 µM (top of the series)
Chain of UniProt Q07343 (Q07343 whole entry, looked up): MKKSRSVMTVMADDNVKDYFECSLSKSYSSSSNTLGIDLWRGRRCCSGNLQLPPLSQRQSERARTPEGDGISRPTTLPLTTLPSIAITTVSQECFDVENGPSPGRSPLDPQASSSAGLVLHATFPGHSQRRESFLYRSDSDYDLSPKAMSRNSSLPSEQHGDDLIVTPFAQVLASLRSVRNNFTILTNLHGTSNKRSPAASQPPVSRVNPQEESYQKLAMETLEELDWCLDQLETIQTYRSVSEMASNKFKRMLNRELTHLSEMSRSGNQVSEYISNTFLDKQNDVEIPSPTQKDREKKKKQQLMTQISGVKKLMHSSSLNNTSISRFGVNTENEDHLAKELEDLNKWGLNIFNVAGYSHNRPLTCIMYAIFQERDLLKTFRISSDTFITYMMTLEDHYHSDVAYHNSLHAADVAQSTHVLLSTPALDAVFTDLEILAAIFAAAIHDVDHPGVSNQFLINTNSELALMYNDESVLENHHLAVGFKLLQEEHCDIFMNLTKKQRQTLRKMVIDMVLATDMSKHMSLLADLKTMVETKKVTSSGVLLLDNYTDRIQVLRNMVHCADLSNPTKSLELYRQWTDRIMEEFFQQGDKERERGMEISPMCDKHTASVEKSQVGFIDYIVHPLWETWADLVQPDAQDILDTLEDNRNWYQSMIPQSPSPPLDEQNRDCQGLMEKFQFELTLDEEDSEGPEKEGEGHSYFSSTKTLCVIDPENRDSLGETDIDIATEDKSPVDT
Method in brief: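 The readout is membrane depolarisation from a cAMP-sensing CNG channel, detected with a potential dye at ex 535/em 590. Cells were HEK293-derived (endogenous PDE-IV) at 1000 cells/well, titrated up to 22.9 uM final.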

[12] = qHTS Assay for Identification of Small Molecule Antagonists for NFkB Signaling Pathway (AID 895; active means well fitted inhibition curve with a large enough effect in the signal ratio, with a control signal flat, not every such curve was filed as active; inconclusive means small, poorly fitted or top-dose-only effect, or effect the other way, or a change in a side signal; the % refers to the signal ratio; further: potency means the concentration at half of the fitted maximal effect); conditions: NFkB beta-lactamase reporter cells, FRET ratio 460/530, stimulated with 10 pM TNF alpha; activity change, negative = inhibition: at 38.3 µM (top of the series)
Method in brief: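 ME-180 NFkB-bla cells (beta-lactamase under NFkB response element), plated overnight, treated with compound then 10 pM TNF alpha (about EC50) for 5 hrs at 37 C. LiveBLAzer FRET read at 460/530 nm emission, 405 nm excitation.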

[13] = qHTS Assay for Identification of Small Molecule Agonists for Hypoxia Response Element Signaling Pathway (AID 914; active means well fitted activation curve with a large enough effect in the signal ratio, with a control signal flat, not every such curve was filed as active; inconclusive means small, poorly fitted or top-dose-only effect, or effect the other way, or a change in a side signal; the % refers to the signal ratio; further: top concentration of the series differs between compounds; % of control where 0% means no effect); conditions: ME-180 (cervical carcinoma) HRE-bla reporter, beta-lactamase ratio, CoCl2, 17 h; activation: hits give high values
Method in brief: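 In Opti-MEM containing 0.5% dialyzed FBS and 10 mM HEPES, ME-180 HRE-bla cells received a compound titration and EC50 CoCl2. They were incubated 17 hours, then CCF4-loaded 2.5 hours at room temperature before ratio reading.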

[14] = qHTS Assay for Identification of Small Molecule Agonists for Thrombopoietin (TPO) Signaling Pathway (AID 917); further: on the % scale 0 is the no-effect control and ±100 the full control effect
Method in brief: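 Luminescence from a Glycoprotein IIb promoter–driven luciferase reporter served as read-out in murine Ba/F3 cells carrying the human TPO receptor. Cells, deprived of IL-3 overnight, received compounds with 26 pM TPO and were incubated 24 hrs at 37 C.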

[15] = qHTS Assay for Identification of Small Molecule Antagonists for Thrombopoietin (TPO) Signaling Pathway (AID 918); conditions: TPO-dependent cell signaling reporter, antagonist mode; activity change, negative = inhibition: at 38.5 µM (top of the series); further: nearly all actives have a fitted effect of over 60% in size
Method in brief: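 Murine Ba/F3 cells stably expressing human TPO receptor and a Glycoprotein IIb promoter–luciferase reporter were IL-3-starved overnight, treated with compounds plus TPO (26 pM final, its EC50) for 24 hrs at 37 C, then read by luminescence.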

[16] = target: Muscarinic acetylcholine receptor M1 (Rattus norvegicus) (UniProt P08482); assay: qHTS Assay for Antagonists of Acetylcholine Muscarinic M1 Receptor: Kinetic Measurement of Intracellular Calcium Response (AID 943);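 further: Fluo-4 calcium signal as peak divided by basal fluorescence over 4 min; nearly all actives have a fitted effect of over 75% in size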
Chain of UniProt P08482 (P08482 whole entry, looked up): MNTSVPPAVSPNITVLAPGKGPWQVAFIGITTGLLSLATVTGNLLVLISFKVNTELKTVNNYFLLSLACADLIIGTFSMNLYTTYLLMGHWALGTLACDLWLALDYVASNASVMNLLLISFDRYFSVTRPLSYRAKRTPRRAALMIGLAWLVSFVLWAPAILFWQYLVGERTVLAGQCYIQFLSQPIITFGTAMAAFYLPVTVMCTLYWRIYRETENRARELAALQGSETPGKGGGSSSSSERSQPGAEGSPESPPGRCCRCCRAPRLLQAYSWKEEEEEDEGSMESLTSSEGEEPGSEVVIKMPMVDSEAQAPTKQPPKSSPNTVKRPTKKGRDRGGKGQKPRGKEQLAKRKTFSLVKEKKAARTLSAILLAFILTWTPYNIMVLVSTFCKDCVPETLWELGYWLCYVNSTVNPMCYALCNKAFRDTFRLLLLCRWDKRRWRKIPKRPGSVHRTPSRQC
Method in brief: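 CHO cells stably expressing rat M1 were loaded with no-wash Fluo-4 dye for 1 h at 37C, pre-incubated 10 min with compound, then challenged with EC80 carbachol (100 nM final); kinetic calcium read 4 min, peak/basal ratio.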

[17] = qHTS for differential inhibitors of proliferation of Plasmodium falciparum line 7G8 (AID 1815);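 further: parasite growth measured after three days of incubation; plate controls were vehicle wells for no effect and reference inhibitor wells for full effect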
[18] = qHTS for differential inhibitors of proliferation of Plasmodium falciparum line GB4 (AID 1816); conditions: Potency: Plasmodium falciparum GB4 proliferation inhibition;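 further: potency means the concentration at half of the fitted maximal effect; parasite growth measured after 72 h incubation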
[19] = qHTS for differential inhibitors of proliferation of Plasmodium falciparum line 3D7 (AID 1876);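 further: parasite growth measured after three days of culture; 0% = vehicle wells and -100% = reference inhibitor wells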
[20] = qHTS for differential inhibitors of proliferation of Plasmodium falciparum line W2 (AID 1883); conditions: Potency: Plasmodium falciparum W2 proliferation inhibition;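 further: potency means the concentration at half of the fitted maximal effect; parasites grown with compound for 72 h before lysis and staining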
[21] = qHTS for differential inhibitors of proliferation of Plasmodium falciparum line HB3 (AID 1886); conditions: Potency: Plasmodium falciparum HB3 proliferation inhibition;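 further: potency means the concentration at half of the fitted maximal effect; parasites grown with compound for 72 h before SYBR Green readout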
[22] = Validation screen for small molecules that induce DNA re-replication in MCF 10A normal breast cells (AID 463097); further: 0% is about no effect; nearly all actives have a fitted effect of over 60% in size
Method in brief: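 Image-based qHTS: normal breast cells are incubated with compound for 48 hr, stained with Hoechst, and scanned for total nuclear fluorescence. Compounds raising the fraction of nuclei with elevated DNA content count as re-replication inducers.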

[23] = Quantitative high throughput screen for delayed death inhibitors of the malarial parasite plastid, 48 hour incubation (AID 488752); further: on the % scale 0 is the no-effect control and ±100 the full control effect; nearly all actives have a fitted effect of over 65% in size
Method in brief: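 Erythrocytes infected with P. falciparum carrying an integrated firefly luciferase reporter (2% hematocrit, 0.1% parasitemia final) were exposed to compounds in RPMI 1640/0.5% Albumax for 48 h at 37 C, 5% CO2. Growth inhibition was scored as reduced luminescence.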

[24] = target: Chromobox protein homolog 1 (Homo sapiens) (UniProt P83916); assay: qHTS Validation Assay for Inhibitors of HP1-beta Chromodomain Interactions with Methylated Histone Tails (AID 488953);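 further: loss of AlphaScreen luminescence from HP1-beta binding biotinylated H3K9me3 peptide; on the % scale 0 is the no-effect control and ±100 the full control effect; nearly all actives have a fitted effect of over 50% in size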
Chain of UniProt P83916 (P83916 whole entry, looked up): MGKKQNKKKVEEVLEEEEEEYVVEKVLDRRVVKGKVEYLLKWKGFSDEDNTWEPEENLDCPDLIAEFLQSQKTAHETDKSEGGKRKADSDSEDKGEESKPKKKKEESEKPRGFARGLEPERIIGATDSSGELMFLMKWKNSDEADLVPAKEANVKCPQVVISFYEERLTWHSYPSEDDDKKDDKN
Method in brief: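 HP1-beta (50 nM) was preincubated 30 min at room temperature with biotinylated H3(1-18)K9me3 peptide (50 nM) in PBS pH 7.4, 0.01% Tween-20, then with compounds 30 min. AlphaScreen signal was read after streptavidin donor/nickel chelate acceptor beads (10 ug/mL final).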

[25] = target: D(1A) dopamine receptor (Homo sapiens) (UniProt P21728); assay: HTS Assay for Allosteric Agonists of the Human D1 Dopamine Receptor: Primary Screen for Potentiators (AID 488982); further: 0% is about no effect
Chain of UniProt P21728 (P21728 whole entry, looked up): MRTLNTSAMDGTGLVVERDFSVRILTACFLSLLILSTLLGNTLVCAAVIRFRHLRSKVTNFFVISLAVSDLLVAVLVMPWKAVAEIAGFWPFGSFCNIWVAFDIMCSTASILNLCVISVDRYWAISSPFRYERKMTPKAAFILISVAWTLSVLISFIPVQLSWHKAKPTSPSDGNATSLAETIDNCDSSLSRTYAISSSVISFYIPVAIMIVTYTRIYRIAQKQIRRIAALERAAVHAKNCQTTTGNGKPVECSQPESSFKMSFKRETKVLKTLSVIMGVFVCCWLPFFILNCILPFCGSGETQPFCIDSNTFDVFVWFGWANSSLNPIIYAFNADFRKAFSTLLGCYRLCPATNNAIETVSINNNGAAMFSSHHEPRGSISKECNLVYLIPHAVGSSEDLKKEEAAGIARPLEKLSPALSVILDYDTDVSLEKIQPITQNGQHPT
Method in brief: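 Tetracycline-induced HEK293 Trex D1 cells with forced coupling to calcium, loaded with no-wash calcium dye; kinetic fluorescence read 180 s after compound addition for agonism, then a further 180 s after an EC20 dopamine challenge for potentiation.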

[26] = Validation screen for small molecules that induce DNA re-replication in SW480 colon adenocarcinoma cells (AID 504364); further: 0% is about no effect
Method in brief: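 SW480 cells seeded at 250 per well were exposed to compound or DMSO for 48 hr at 37 C, 5% CO2, then stained with Hoechst for 40 min. DNA content per nucleus was imaged (405 nm ex, 500-530 nm em).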

[27] = qHTS Assay for Identifying Gametocytocidal Compounds (AID 743244);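 further: on the % scale 0 is the no-effect control and ±100 the full control effect; actives lower the fluorescent signal which means gametocytes are killed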; conditions: P. falciparum 3D7 stage III-V gametocytes, alamarBlue, 72 h; max response: hits give low values
Method in brief: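 3D7 gametocytes, stages III–V, 20,000/well; cpd 72 h, 37 °C/5% CO2; + alamarBlue 24 h; fluor. Ex 525/Em 598.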

Papain (Carica papaya) = Papain (Carica papaya) (UniProt P00784); assay: Primary qHTS assay for inhibitors of the protease papain (AID 1645873)
Chain of UniProt P00784 (P00784 whole entry, looked up): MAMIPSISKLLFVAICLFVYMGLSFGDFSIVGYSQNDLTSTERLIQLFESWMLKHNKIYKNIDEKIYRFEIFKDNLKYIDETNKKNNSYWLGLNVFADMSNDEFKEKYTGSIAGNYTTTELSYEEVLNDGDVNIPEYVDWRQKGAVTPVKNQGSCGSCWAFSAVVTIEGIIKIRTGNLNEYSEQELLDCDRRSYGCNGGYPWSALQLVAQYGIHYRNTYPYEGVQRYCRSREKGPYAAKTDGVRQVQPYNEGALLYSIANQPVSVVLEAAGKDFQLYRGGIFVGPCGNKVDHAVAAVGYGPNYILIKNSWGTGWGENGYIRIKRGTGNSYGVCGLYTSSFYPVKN
Tags describe the fitted curve by direction and shape or compound fluorescence and quenching.

O=C1OC(=O)C2C3CCC(O3)C12 (stereo unspecified)
inactive: Potency [1] | Potency [2] | Potency [4] | Potency [5] | Potency [6]
inconclusive: activity change [3] -31% | Potency [7] 0.501 µM [inhibitor, partial curve, poor fit] | Potency [8] 12.6 µM [inhibitor, single point]

Cn1c(=O)c2[nH]c(C3CCCC3)nc2n(C)c1=O
inconclusive: activity, negative = inhibition [9] -54.3% [inhibitor] [at 38 µM] | Potency [10] 39.8 µM [activator, single point] | Potency [11] 7.94 µM [activator, partial curve, poor fit] | Potency [12] 11.2 µM [inhibitor, single point] | activity change, negative = inhibition [15] 6.19% [phenotype inactive] | Potency [18] 12.6 µM [inhibitor, partial curve, poor fit] | Potency [20] 10 µM [inhibitor, partial curve] | Potency [21] 4.47 µM [inhibitor, partial curve] | Potency [4] 0.0076 µM [falling, full curve, poor fit] | Potency [6] 39.8 µM [inhibitor, single point] | Potency [7] 0.126 µM [inhibitor, full curve, poor fit] | Potency (Papain (Carica papaya)) 8.91 µM [inhibitor, single point]
inactive: activation [13] -4.29% | Potency [14] | Potency [16] | Potency [17] | Potency [19] | Potency [22] | Potency [23] | Potency [24] | Potency [25] | Potency [26] | max response [27] 9.69%
